Test results: PubChem BioAssay AID1466 (National Center for Advancing Translational Sciences (NCATS), 2008)
Among all 200,000 compounds or so, about 10 (0.005%) were called active. The shares of active, inactive and inconclusive entries below differ from those in the screen. The call rests on the fitted dose curve; in most records, active means well fitted inhibition curve with a large enough effect; inconclusive means small, poorly fitted or top-dose-only effect, or effect the other way, or another doubt; inactive means no such curve, though single readings can be large or run the other way. Potencies of inconclusive entries are left out as doubtful fits.

The compounds below were run against Lysosomal alpha-glucosidase (Homo sapiens) (UniProt P10253) (assay: qHTS Assay for Inhibitors of Human alpha-Glucosidase as a Potential Chaperone Treatment of Pompe Disease). Conditions: purified human GAA, 4-MU-alpha-glucoside fluorescence; activity change, negative = inhibition: at 76.9 µM (top of the series) unless noted.
Summary of the method: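 Read-out is 4-methylumbelliferone fluorescence (Ex 365/Em 440 nm) after NaOH/glycine stop at pH 10. Enzyme 4 nM, substrate 400 uM, pH 5.0 citrate buffer, 20 min room temperature; AC50 from Hill-equation concentration-response.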
Potency means the concentration at half of the fitted maximal effect; tags describe the fitted curve by direction and shape.
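Wherever activity change, negative = inhibition is given: plate controls were uninhibited enzyme wells for no effect and no-enzyme background for full effect.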

Q: With Cc1ccc(NC(=S)N(CCCN2CCCC2)Cc2cccn2Cc2ccc(Cl)cc2)cc1Cl as the compound, how does the Potency read?
A: inconclusive [inhibitor, single point]

Q: How did the Potency turn out when Cc1cccc(N2CCN(C(=O)C3CCN(c4nnc(-n5cccc5)s4)CC3)CC2C)c1 (configuration not stated) was run?
A: inconclusive [inhibitor, full curve, poor fit]

Q: How did the Potency turn out when CN(C)c1ccc(C2OC(=O)C3(CCCC3)C(=O)C2(C)C)cc1 (configuration not stated) was run?
A: inconclusive [inhibitor, single point]

Q: With O=S1(=O)c2ccccc2N=NN1Cc1cc(Cl)cc(Cl)c1 as the compound, how does the Potency read?
A: inconclusive [inhibitor, single point]

Q: How did the Potency turn out when O=S(=O)(Nc1ccccn1)c1cccc(S(=O)(=O)c2ccc(Cl)cc2)c1 was run?
A: inconclusive [inhibitor, partial curve, poor fit]

Q: How did the Potency turn out when Cc1nn(C)c2nc(-c3cccs3)cc(C(F)(F)F)c12 was run?
A: inconclusive [activator, partial curve]

Q: COc1ccc2cc3cc(C(=O)NCCc4ccc(OC)c(OC)c4)oc3nc2c1 was tested. Which Potency did it give?
A: inconclusive [activator, partial curve]

Q: With O=C(CCN1C(=O)c2ccccc2C1=O)Nc1cccnc1 as the compound, how does the Potency read?
A: inconclusive [inhibitor, partial curve]

Q: N#CC1=C(N)N(c2ccc(F)cc2)C2=C(C1c1ccc(O)cc1)S(=O)(=O)CC2 (configuration not stated) was tested. Which activity change, negative = inhibition did it give?
A: inconclusive: -15.5% [inhibitor]

Q: With Cc1c(Cl)c(=O)oc2cc(OC(C)C)ccc12 as the compound, how does the Potency read?
A: inconclusive [activator, partial curve]

Q: CCN(CC)C(=O)Oc1ccc(Cl)c2cccnc12 was tested. Which activity change, negative = inhibition did it give?
A: inconclusive: 11% [activator]

Q: Which activity change, negative = inhibition does the source give for Cc1nc(Nc2ccc3c(c2)OCO3)c2oc3ccccc3c2n1 here?
A: inconclusive: 18.2% [activator]

Q: O=[N+]([O-])c1cc(S(=O)(=O)C(F)(F)F)ccc1Sc1nc2ccccc2s1 was tested. Which Potency did it give?
A: inconclusive [inhibitor, single point]

Q: For CCCCNC(=O)CCCCCn1c(=O)[nH]c2cc(C(=O)OC)ccc2c1=O, which Potency is on record?
A: inconclusive [activator, partial curve]

Q: With O=C(COC(=O)C1CCN(S(=O)(=O)c2ccc3c(c2)OCCO3)CC1)Nc1ccccc1OC(F)F as the compound, how does the activity change, negative = inhibition read?
A: inconclusive: -16% [inhibitor]

Q: How did the activity change, negative = inhibition turn out when O=S(=O)(c1ccc2nc(COc3ccc(Cl)cc3Cl)[nH]c2c1)N1CCOCC1 was run?
A: inconclusive: -16.6% [inhibitor]

Q: For CC(=O)Nc1ccc(Oc2ccc(-c3noc(C)n3)cc2)cc1, which activity change, negative = inhibition is on record?
A: inconclusive: 21.4% [activator]

Q: Which activity change, negative = inhibition does the source give for Cc1ccc2c(CC(=O)N3CCN(c4ccccc4)CC3)coc2c1 here?
A: inconclusive: -15.1% [inhibitor]

Q: CCOc1ccc(N2C(=O)CC(SCC(=O)O)C2=O)cc1 (configuration not stated) was tested. Which activity change, negative = inhibition did it give?
A: inconclusive: 17.1% [activator]

Q: How did the activity change, negative = inhibition turn out when C[C@@]12CC(=O)NC1N(C(=O)c1cccc(C(F)(F)F)c1)C(c1ccccc1OC(=O)c1cccc(C(F)(F)F)c1)C2 (some centres not stated) was run?
A: inconclusive: -16% [inhibitor]

Q: How did the Potency turn out when CSc1nccc(Oc2cccc(C#N)c2)n1 was run?
A: inactive

Q: For Cn1cc(-c2cccc(Cl)c2)cc(C#N)c1=O, which Potency is on record?
A: inconclusive [activator, partial curve]

Q: How did the Potency turn out when CS(=O)(=O)N(CC(=O)N1CCCCCC1)Cc1ccc(Cl)cc1 was run?
A: inconclusive [inhibitor, single point]

Q: Which activity change, negative = inhibition does the source give for Cc1cc(C)n(CCNCc2c(C(=O)N3C[C@@H](C)O[C@@H](C)C3)nc3ccc(Cl)cn23)n1 here?
A: inconclusive: 19.7% [activator]

Q: With CCN(CC)S(=O)(=O)c1ccc(C(=O)NCc2n[nH]c(=S)n2-c2ccc(Cl)c(Cl)c2)cc1 as the compound, how does the Potency read?
A: inconclusive [inhibitor, partial curve, poor fit]

Q: Which activity change, negative = inhibition does the source give for COCCn1nnnc1C(c1cc2c(C)cc(C)cc2[nH]c1=O)N1CCCCCC1 (configuration not stated) here?
A: inconclusive: 18.3% [activator]

Q: Which Potency does the source give for COc1ccc(Br)cc1/C=N/NC(=O)c1ccc(COc2ccc3c(c2)CCC3)o1 here?
A: inconclusive [activator, partial curve]

Q: How did the Potency turn out when CC(=O)N1CCN(c2ccc(NCc3ccccc3)cc2)CC1 was run?
A: inactive

Q: Which Potency does the source give for O=C(Nc1ccc(Br)cn1)c1cccc2c1-c1ccccc1C2=O here?
A: inconclusive [inhibitor, full curve, poor fit]

Q: With Nc1cc(-c2ccccc2)ccc1O as the compound, how does the Potency read?
A: inactive

Q: O=C(NC(=S)NNC(=O)c1cccs1)c1ccco1 was tested. Which Potency did it give?
A: inactive

Q: How did the Potency turn out when COc1ccc(N2CCc3c(C)nc4c(OC)cc(OC)cc4c32)c(OC)c1 was run?
A: inconclusive [inhibitor, partial curve, poor fit]

Q: For COc1ccc(/C=c2\s/c(=C/C(=O)c3ccc(C)cc3)[nH]c2=O)c(OC)c1, which Potency is on record?
A: inconclusive [inhibitor, partial curve]

Q: c1ccc2c3c([nH]c2c1)C(C1CCCCC1)N(Cc1ncc[nH]1)CC3 (configuration not stated) was tested. Which Potency did it give?
A: inconclusive [inhibitor, full curve]

Q: Which Potency does the source give for O=C(CC1C(=O)NCCN1C(=O)Nc1ccccc1)Nc1cccc(C(F)(F)F)c1 (configuration not stated) here?
A: inconclusive [inhibitor, single point]

Q: How did the Potency turn out when COc1ccccc1-n1cc(-c2ccc(Cl)cc2)[nH]c1=O was run?
A: inconclusive [inhibitor, single point]

Q: How did the Potency turn out when CC(O/N=C/c1ccccc1OC(F)F)C(=O)Nc1cccc(S(=O)(=O)N2CCOCC2)c1 (configuration not stated) was run?
A: inconclusive [inhibitor, single point]

Q: Cc1nn(C)cc1C(=O)NNC(=S)Nc1ccccc1 was tested. Which Potency did it give?
A: inactive

Q: How did the Potency turn out when Cn1c(-c2ccc(F)cc2)cnc1NCc1ccc(F)cc1 was run?
A: inactive

Q: Which Potency does the source give for Cc1nc(-c2ccc(C(=O)O)cc2)cs1 here?
A: inconclusive [inhibitor, partial curve]

Q: Which activity change, negative = inhibition does the source give for Cc1cccc2cc3c(NC(=O)CC(C)C)nn(C)c3nc12 here?
A: inconclusive: -18.5% [inhibitor]

Q: For O=C(CSCc1ccc(Cl)cc1Cl)Nc1ccccc1C(=O)Nc1ccc(C(=O)O)cc1, which Potency is on record?
A: inconclusive [inhibitor, single point]

Q: COC(=O)c1cc(OC)c(OC)cc1NC(=O)c1cc(OC)cc(OC)c1 was tested. Which Potency did it give?
A: inconclusive [activator, partial curve]

Q: Which Potency does the source give for COc1cccc(C(c2sc3nc(C)nn3c2O)N2CCc3ccccc3C2)c1 (configuration not stated) here?
A: inconclusive [inhibitor, single point]

Q: For CC1CCN(S(=O)(=O)c2cccc(C(=O)N(Cc3ccccc3)c3ccccn3)c2)CC1, which Potency is on record?
A: inconclusive [inhibitor, partial curve]

Q: Cc1[nH]c2ccccc2c1C(c1ccncc1)N1CCN(c2ccc(F)cc2)CC1 (configuration not stated) was tested. Which Potency did it give?
A: inconclusive [inhibitor, single point]

Q: For COc1ccc(CCNC(=O)COc2ccc(S(=O)(=O)NC3CCCCC3)cc2Cl)cc1, which Potency is on record?
A: inconclusive [inhibitor, partial curve]

Q: Cn1c(N/N=C/c2c[nH]c3ccccc23)nc2ccccc21 was tested. Which activity change, negative = inhibition did it give?
A: inconclusive: -16.5% [inhibitor]

Q: With O=C(CSc1nnc(CNc2cccc(Cl)c2)o1)OC1CCCCC1 as the compound, how does the Potency read?
A: inconclusive [inhibitor, single point]

Q: How did the Potency turn out when CSC1=C(C#N)C(c2ccccc2)C(C(C)=O)=C(C)N1 (configuration not stated) was run?
A: inconclusive [activator, single point]

Q: For COc1ccc(NS(=O)(=O)c2cccs2)cn1, which Potency is on record?
A: inactive

Q: O=C(NNC(=O)C1CCCO1)c1ccccc1Cl (configuration not stated) was tested. Which Potency did it give?
A: inconclusive [inhibitor, single point]

Q: For CCOc1ccccc1NC(=O)Cn1cnc2c(nnn2-c2cccc(OC)c2)c1=O, which Potency is on record?
A: inconclusive [inhibitor, partial curve]

Q: Which Potency does the source give for CCOC(=O)Cc1csc(NC(=S)NC(=O)c2cc(OC)cc(OC)c2)n1 here?
A: inconclusive [inhibitor, partial curve]

Q: With NC(=O)CN1CCN(c2nc(-c3ccc(F)cc3)cs2)CC1 as the compound, how does the Potency read?
A: inconclusive [inhibitor, full curve, poor fit]

Q: For CCN(CC)CCN1C(=O)C(=O)/C(=C(/O)c2ccc(OC(C)C)cc2)C1c1ccncc1 (configuration not stated), which activity change, negative = inhibition is on record?
A: inconclusive: -18.5% [inhibitor]

Q: O=C(c1ccc2ncsc2c1)N1CCN(c2ccc(O)cc2)CC1 was tested. Which Potency did it give?
A: inactive

Q: For CN1c2ccccc2Oc2nnc(N3CCN(Cc4ccccc4)CC3)cc21, which Potency is on record?
A: inconclusive [activator, partial curve]

Q: Which Potency does the source give for Cc1c(N=Cc2nc3ccccc3n2C)c(=O)n(-c2ccccc2)n1C here?
A: inactive

Q: Cc1ccc(NS(=O)(=O)c2ccc(CCC(=O)NC3CC3)cc2)cc1 was tested. Which activity change, negative = inhibition did it give?
A: inconclusive: 20.5% [activator]

Q: How did the activity change, negative = inhibition turn out when O=C(NCc1ccncc1)C1CCCCC1 was run?
A: inconclusive: -18.1% [inhibitor]

Q: COC(=O)c1ccccc1NC(=O)N1c2ccccc2Sc2ccccc21 was tested. Which Potency did it give?
A: inconclusive [inhibitor, single point]

Q: COC(=O)c1ccccc1NC1CC(=O)N(c2c(C)cccc2C)C1=O (configuration not stated) was tested. Which activity change, negative = inhibition did it give?
A: inconclusive: 46.2% [activator]

Q: With CC(=O)Nc1ccc(S(=O)(=O)Nc2ccc(S(=O)(=O)N3CCCC3)cc2)cc1 as the compound, how does the Potency read?
A: inconclusive [inhibitor, single point]

Q: For Cc1ccc(S(=O)(=O)N/N=C/c2cc([N+](=O)[O-])ccc2O)cc1[N+](=O)[O-], which Potency is on record?
A: inactive

Q: O=C(NC(CO)(CO)CO)c1coc(=O)c(Br)c1 was tested. Which activity change, negative = inhibition did it give?
A: inconclusive: 22.7% [activator]

Q: For Cc1cc(NC(=O)C2CC2)ncc1NC(=O)c1ccccn1, which activity change, negative = inhibition is on record?
A: inconclusive: 18.1% [activator]
